Results taken from the supplement of paper PMC4967469.

Columns and labels:
Test in all cases: Viability of human cancer cell lines after 72 h of drug (GDSC screen)
TW-37 = compound: CC(C)c1ccccc1Cc1cc(C(=O)Nc2ccc(S(=O)(=O)c3ccccc3C(C)(C)C)cc2)c(O)c(O)c1O [TW-37]; conditions: top dose 5 µM
Protocol: (§1)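 Human cancer cell lines in 384-well plates, medium with 10% serum, drug for 72 h over a 256-fold dose range (nine 2-fold or five 4-fold steps up to the top dose). Adherent lines were fixed and stained with the nucleic acid dye Syto60, suspension lines read with resazurin; signal relative to control wells, capped at 0 and 100%. One two-parameter sigmoid per drug and line, fitted in a mixed model over all curves with the slope shared within a line.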

Bicalutamide = compound: CC(O)(CS(=O)(=O)c1ccc(F)cc1)C(=O)Nc1ccc(C#N)c(C(F)(F)F)c1 [Bicalutamide]; conditions: top dose 10 µM; screen: GDSC drug entry 1502; top dose inferred
Protocol: as §1

Nilotinib = compound: Cc1cn(-c2cc(NC(=O)c3ccc(C)c(Nc4nccc(-c5cccnc5)n4)c3)cc(C(F)(F)F)c2)cn1 [Nilotinib]; conditions: top dose 2 µM
Protocol: as §1

KIN001-270 = compound: Cc1ccc(Nc2cc(-c3cccc(N4C(=O)c5ccccc5C4=O)c3)ncn2)cc1NS(C)(=O)=O [KIN001-270]; conditions: top dose 20 µM; top dose inferred
Protocol: as §1

MP470 = compound: S=C(NCc1ccc2c(c1)OCO2)N1CCN(c2ncnc3c2oc2ccccc23)CC1 [MP470]; conditions: top dose 20 µM; top dose inferred
Protocol: as §1

T0901317 = compound: O=S(=O)(c1ccccc1)N(CC(F)(F)F)c1ccc(C(O)(C(F)(F)F)C(F)(F)F)cc1 [T0901317]; conditions: top dose 10.24 µM; top dose inferred
Protocol: as §1

NCI-N87 (stomach, adherent)
AUC (TW-37): 0.771 | IC50 (TW-37): 2.83 µM | AUC (Bicalutamide): 0.973 | IC50 (Bicalutamide): > 10 µM | AUC (Nilotinib): 0.93 | IC50 (Nilotinib): > 2 µM

RH-18 (rhabdomyosarcoma, adherent)
AUC (TW-37): 0.67 | IC50 (TW-37): 1 µM | AUC (Bicalutamide): 0.979 | IC50 (Bicalutamide): > 10 µM | AUC (Nilotinib): 0.977 | IC50 (Nilotinib): > 2 µM

PWR-1E (prostate, adherent)
AUC (TW-37): 0.37 | IC50 (TW-37): 0.137 µM | AUC (Bicalutamide): 0.983 | IC50 (Bicalutamide): > 10 µM | AUC (Nilotinib): 0.984 | IC50 (Nilotinib): > 2 µM

DIFI (large intestine, adherent)
AUC (TW-37): 0.866 | IC50 (TW-37): 4.77 µM | AUC (Bicalutamide): 0.986 | IC50 (Bicalutamide): > 10 µM | AUC (Nilotinib): 0.987 | IC50 (Nilotinib): > 2 µM

MOLT-13 (T-cell lymphoblastic leukaemia, suspension)
AUC (KIN001-270): 0.973 | IC50 (KIN001-270): > 20 µM | AUC (TW-37): 0.616 | IC50 (TW-37): 0.623 µM | AUC (Bicalutamide): 0.957 | IC50 (Bicalutamide): > 10 µM | AUC (MP470): 0.732 | IC50 (MP470): 5.17 µM | AUC (Nilotinib): 0.982 | IC50 (Nilotinib): > 2 µM

SK-MG-1 (glioma, adherent)
AUC (KIN001-270): 0.974 | IC50 (KIN001-270): > 20 µM | AUC (TW-37): 0.5 | IC50 (TW-37): 0.313 µM | AUC (Bicalutamide): 0.986 | IC50 (Bicalutamide): > 10 µM | AUC (MP470): 0.974 | IC50 (MP470): > 20 µM | AUC (T0901317): 0.987 | IC50 (T0901317): > 10.2 µM | AUC (Nilotinib): 0.944 | IC50 (Nilotinib): > 2 µM

NCC010 (kidney, adherent)
AUC (TW-37): 0.376 | IC50 (TW-37): 0.138 µM | AUC (Bicalutamide): 0.954 | IC50 (Bicalutamide): > 10 µM | AUC (Nilotinib): 0.986 | IC50 (Nilotinib): > 2 µM

NCI-H508 (large intestine, semi-adherent)
AUC (TW-37): 0.934 | IC50 (TW-37): > 5 µM | AUC (Bicalutamide): 0.972 | IC50 (Bicalutamide): > 10 µM | AUC (Nilotinib): 0.975 | IC50 (Nilotinib): > 2 µM

ESO26 (oesophagus, adherent)
AUC (KIN001-270): 0.987 | IC50 (KIN001-270): > 20 µM | AUC (TW-37): 0.698 | IC50 (TW-37): 1.09 µM | AUC (Bicalutamide): 0.988 | IC50 (Bicalutamide): > 10 µM | AUC (MP470): 0.934 | IC50 (MP470): > 20 µM | AUC (T0901317): 0.987 | IC50 (T0901317): > 10.2 µM | AUC (Nilotinib): 0.989 | IC50 (Nilotinib): > 2 µM

SNU-81 (large intestine, adherent)
AUC (KIN001-270): 0.974 | IC50 (KIN001-270): > 20 µM | AUC (TW-37): 0.741 | IC50 (TW-37): 1.98 µM | AUC (Bicalutamide): 0.964 | IC50 (Bicalutamide): > 10 µM | AUC (MP470): 0.851 | IC50 (MP470): > 20 µM | AUC (T0901317): 0.979 | IC50 (T0901317): > 10.2 µM | AUC (Nilotinib): 0.78 | IC50 (Nilotinib): 1.13 µM

D-566MG (glioma, adherent)
AUC (KIN001-270): 0.948 | IC50 (KIN001-270): > 20 µM | AUC (TW-37): 0.347 | IC50 (TW-37): 0.118 µM | AUC (MP470): 0.966 | IC50 (MP470): > 20 µM | AUC (T0901317): 0.958 | IC50 (T0901317): > 10.2 µM | AUC (Nilotinib): 0.948 | IC50 (Nilotinib): > 2 µM

CL-34 (large intestine, adherent)
AUC (TW-37): 0.975 | IC50 (TW-37): > 5 µM | AUC (Bicalutamide): 0.985 | IC50 (Bicalutamide): > 10 µM | AUC (Nilotinib): 0.978 | IC50 (Nilotinib): > 2 µM

TC-YIK (cervix, suspension)
AUC (TW-37): 0.543 | IC50 (TW-37): 0.404 µM | AUC (Bicalutamide): 0.967 | IC50 (Bicalutamide): > 10 µM | AUC (Nilotinib): 0.986 | IC50 (Nilotinib): > 2 µM

MKN7 (stomach, adherent)
AUC (TW-37): 0.849 | IC50 (TW-37): > 5 µM | AUC (Bicalutamide): 0.981 | IC50 (Bicalutamide): > 10 µM | AUC (Nilotinib): 0.975 | IC50 (Nilotinib): > 2 µM

MOLT-16 (T-cell lymphoblastic leukaemia, suspension)
AUC (TW-37): 0.387 | IC50 (TW-37): 0.163 µM | AUC (Bicalutamide): 0.974 | IC50 (Bicalutamide): > 10 µM | AUC (Nilotinib): 0.966 | IC50 (Nilotinib): > 2 µM

OC-314 (ovary, adherent)
AUC (KIN001-270): 0.958 | IC50 (KIN001-270): > 20 µM | AUC (TW-37): 0.411 | IC50 (TW-37): 0.185 µM | AUC (Bicalutamide): 0.985 | IC50 (Bicalutamide): > 10 µM | AUC (MP470): 0.951 | IC50 (MP470): > 20 µM | AUC (T0901317): 0.986 | IC50 (T0901317): > 10.2 µM | AUC (Nilotinib): 0.991 | IC50 (Nilotinib): > 2 µM

RCC-FG2 (kidney, adherent)
AUC (KIN001-270): 0.972 | IC50 (KIN001-270): > 20 µM | AUC (TW-37): 0.573 | IC50 (TW-37): 0.522 µM | AUC (Bicalutamide): 0.963 | IC50 (Bicalutamide): > 10 µM | AUC (MP470): 0.936 | IC50 (MP470): > 20 µM | AUC (T0901317): 0.978 | IC50 (T0901317): > 10.2 µM | AUC (Nilotinib): 0.974 | IC50 (Nilotinib): > 2 µM

NCI-H1105 (small cell lung carcinoma, suspension)
AUC (Bicalutamide): 0.993 | IC50 (Bicalutamide): > 10 µM | AUC (Nilotinib): 0.993 | IC50 (Nilotinib): > 2 µM

NCI-H929 (myeloma, suspension)
AUC (TW-37): 0.667 | IC50 (TW-37): 0.84 µM | AUC (Bicalutamide): 0.984 | IC50 (Bicalutamide): > 10 µM | AUC (Nilotinib): 0.893 | IC50 (Nilotinib): 1.76 µM

Hs746T (stomach, adherent)
AUC (KIN001-270): 0.919 | IC50 (KIN001-270): > 20 µM | AUC (TW-37): 0.666 | IC50 (TW-37): 1.07 µM | AUC (Bicalutamide): 0.954 | IC50 (Bicalutamide): > 10 µM | AUC (MP470): 0.122 | IC50 (MP470): < 0.0781 µM | AUC (T0901317): 0.364 | IC50 (T0901317): 0.236 µM | AUC (Nilotinib): 0.955 | IC50 (Nilotinib): > 2 µM

YH-13 (glioma, adherent)
AUC (KIN001-270): 0.973 | IC50 (KIN001-270): > 20 µM | AUC (TW-37): 0.388 | IC50 (TW-37): 0.151 µM | AUC (Bicalutamide): 0.985 | IC50 (Bicalutamide): > 10 µM | AUC (MP470): 0.962 | IC50 (MP470): > 20 µM | AUC (T0901317): 0.986 | IC50 (T0901317): > 10.2 µM | AUC (Nilotinib): 0.974 | IC50 (Nilotinib): > 2 µM

RCC-JF (kidney, adherent)
AUC (KIN001-270): 0.972 | IC50 (KIN001-270): > 20 µM | AUC (TW-37): 0.481 | IC50 (TW-37): 0.276 µM | AUC (Bicalutamide): 0.977 | IC50 (Bicalutamide): > 10 µM | AUC (MP470): 0.754 | IC50 (MP470): 7.48 µM | AUC (T0901317): 0.977 | IC50 (T0901317): > 10.2 µM | AUC (Nilotinib): 0.979 | IC50 (Nilotinib): > 2 µM

CML-T1 (chronic myeloid leukaemia, suspension)
AUC (TW-37): 0.481 | IC50 (TW-37): 0.279 µM | AUC (Bicalutamide): 0.966 | IC50 (Bicalutamide): > 10 µM | AUC (Nilotinib): 0.068 | IC50 (Nilotinib): < 0.00781 µM

RCC-MF (kidney, adherent)
AUC (KIN001-270): 0.965 | IC50 (KIN001-270): > 20 µM | AUC (TW-37): 0.48 | IC50 (TW-37): 0.27 µM | AUC (Bicalutamide): 0.974 | IC50 (Bicalutamide): > 10 µM | AUC (MP470): 0.631 | IC50 (MP470): 3.2 µM | AUC (T0901317): 0.935 | IC50 (T0901317): > 10.2 µM | AUC (Nilotinib): 0.959 | IC50 (Nilotinib): > 2 µM

KATOIII (stomach, semi-adherent)
AUC (TW-37): 0.83 | IC50 (TW-37): 2.78 µM | AUC (Nilotinib): 0.977 | IC50 (Nilotinib): > 2 µM

BALL-1 (B-cell leukaemia, suspension)
AUC (TW-37): 0.511 | IC50 (TW-37): 0.332 µM | AUC (Bicalutamide): 0.987 | IC50 (Bicalutamide): > 10 µM | AUC (Nilotinib): 0.996 | IC50 (Nilotinib): > 2 µM

By IC50 is meant the dose at which the fit gives 50% viability; a fit beyond the top or the lowest dose is shown as a bound at that dose. For AUC the same curve is integrated over the 256-fold range of doses and scaled to a fraction; it is 1 without any effect and falls as sensitivity rises. For some of these results: Any top dose called inferred was calculated from the reported fits. For some of these results: Drugs with an entry number were screened twice under separate entries, and the two screens often disagree.
